From article PMC7819943, “Rice protein-binding microarrays: a tool to detect cis-acting elements near promoter regions in rice” come the findings set out here.

The other results are listed elsewhere or left out.

For this assay, the target named is T1, OsWOX13 (Oryza sativa, UniProt Q5QMM3 1-267).
T1 sequence: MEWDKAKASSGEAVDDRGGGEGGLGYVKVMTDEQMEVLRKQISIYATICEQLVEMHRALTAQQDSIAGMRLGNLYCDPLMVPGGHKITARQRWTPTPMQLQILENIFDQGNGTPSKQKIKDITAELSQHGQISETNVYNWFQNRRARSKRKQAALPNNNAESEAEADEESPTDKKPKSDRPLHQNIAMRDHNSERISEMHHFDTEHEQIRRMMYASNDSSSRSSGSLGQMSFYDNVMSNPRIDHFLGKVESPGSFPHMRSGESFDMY
Nature of the assay: protein-binding microarray (RPBM); PBS, 2% BSA, 51.3 ng/ul salmon testes DNA, 50 uM zinc acetate, 200 nM TF, 25 C, 1 h; high values mean tight binding. The following applies: protein: recombinant; tags: N-terminal polyhistidine and DsRed monomer fusion (pET32a); label: CyDye5-dUTP incorporated in the synthesized complementary strand; 3' TTTTT single-stranded linker to array surface; dsDNA, one strand shown. The essentials: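 Binding signal is reported as fluorescence intensity per feature (arbitrary units) from an Axon 4000B scanner. Incubation used 200 nM of each Ni–NTA-purified, N-terminally polyhistidine- and DsRed-fused transcription factor from E. coli BL21-CodonPlus on a double-stranded custom Agilent array for 1 h at 25 °C, with 50 µM zinc acetate in the buffer, followed by washing.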
Turning to “AACACAGGCTGATGAATGATGATTGAATGAACAGAGACAACGGAGTCACCTAGTGCAG”, the binding signal was 22900 fluorescence intensity (a.u.).

Turning to “GCCATTTGATTGGGAACTCCATCAAAACAATGACAAGAAGCGGAGTCACCTAGTGCAG”, the binding signal is 25900 fluorescence intensity (a.u.).

For “TCATAATTAACTCTAACATTAAGATTTACAGAAAGTTAAACGGAGTCACCTAGTGCAG”, the binding signal was 13900 fluorescence intensity (a.u.).

For “TTCAAAATTATAATGTAATTACATACAAATCACATGAAGGCGGAGTCACCTAGTGCAG”, the binding signal is 26900 fluorescence intensity (a.u.).

For “TAGAATGGAAATTAATCAGAATATCTGCAGAAGGCAAGGGCGGAGTCACCTAGTGCAG”, the binding signal is 9660 fluorescence intensity (a.u.).

“TTAATCGACTAATCAATTCCTCGGATGCCACCTCTCTCTGCGGAGTCACCTAGTGCAG”: the binding signal was 6460 fluorescence intensity (a.u.).

Consider “CAACTGATTTTATCACGTTCTAAAATATGCCATCATCTTTCGGAGTCACCTAGTGCAG”, for which the binding signal was 12300 fluorescence intensity (a.u.).

For “CCTAATGATTTCTCAAGCACAGAGATGAACCATCTTCCATCGGAGTCACCTAGTGCAG”, the binding signal was 12500 fluorescence intensity (a.u.).

With “GGCGGCGGCGGAGGAGGAGGAGGGGAGGGGAGCACGAGCGCGGAGTCACCTAGTGCAG”, the binding signal is 10700 fluorescence intensity (a.u.).

For “ATTTCCAATCAATCCAAGAGGCTAGAGCTAGCGGCCAAGACGGAGTCACCTAGTGCAG”, the binding signal was 12800 fluorescence intensity (a.u.).

Consider “TTGACACATATATGGATCAATCAAGCTAACTCTCTCTAAACGGAGTCACCTAGTGCAG”, for which the binding signal is 11100 fluorescence intensity (a.u.).

Turning to “ATGCCGTTTGAGATTGACGAGGTTAAATGACGAGGGCGGCCGGAGTCACCTAGTGCAG”, the binding signal is 22800 fluorescence intensity (a.u.).

Regarding “AATTAATTAATGCTTCTCTTCTACACTGATGCTGCAGGTTCGGAGTCACCTAGTGCAG”, the binding signal was 45100 fluorescence intensity (a.u.).

Take “TAAAGTGTACTCCAATCAAGTACTACTCCTCCACATCAACCGGAGTCACCTAGTGCAG”: the binding signal was 4570 fluorescence intensity (a.u.).

For the sequence “TAATTGATTAATTAAAATAGTTTATTTGTGGGCATGTAAACGGAGTCACCTAGTGCAG”, the binding signal is 22700 fluorescence intensity (a.u.).

For the sequence “GATGACTGACTTTGTTCAAGCAAACGGTCACTTTTGATCCCGGAGTCACCTAGTGCAG”, the binding signal is 15000 fluorescence intensity (a.u.).

Consider “TTTTATATTAATATAAATGTGATGAGCTTTTATTGAGAAGCGGAGTCACCTAGTGCAG”, for which the binding signal was 8350 fluorescence intensity (a.u.).

Consider “GATACAATAATTACTCCGTATTACTCTCTCTCCCTGCTTACGGAGTCACCTAGTGCAG”, for which the binding signal is 4910 fluorescence intensity (a.u.).

Regarding “CATCAATCAATCAAGATCTCTCTTGACCATCTAGATACATCGGAGTCACCTAGTGCAG”, the binding signal was 51400 fluorescence intensity (a.u.).

For “CGTACCAATTTCAATCCAAATTTCCAACTTTGAAAGAAACCGGAGTCACCTAGTGCAG”, the binding signal was 4780 fluorescence intensity (a.u.).

“GTTATTGAGGATGATTAAAACCGTTTGGTGCCCTGTCATACGGAGTCACCTAGTGCAG”: the binding signal was 5470 fluorescence intensity (a.u.).

Turning to “TATCATTAAATTTATGTGGCTTAACTTTTCTATCATTTAACGGAGTCACCTAGTGCAG”, the binding signal is 7390 fluorescence intensity (a.u.).

For the sequence “TTTTAACACAGTTTAACTGAATTTGACTAAATTCACAATACGGAGTCACCTAGTGCAG”, the binding signal was 6160 fluorescence intensity (a.u.).

Consider “TCTTTATGATTGCTGCCAACTAATGTTTTCTTTCATACTACGGAGTCACCTAGTGCAG”, for which the binding signal is 17600 fluorescence intensity (a.u.).

For the sequence “GCATTTGGTTGTGATTTTGGGAATTGATTCCCTTGTATCCCGGAGTCACCTAGTGCAG”, the binding signal was 3630 fluorescence intensity (a.u.).

“AATTAATCATATGTTAATTTATTGTTCCGTTGCATGCCGGCGGAGTCACCTAGTGCAG”: the binding signal is 38800 fluorescence intensity (a.u.).

In the case of “GCCGGTGATTGGCGTGGCGTGGCGTGGCGTGGCGCGGTGTCGGAGTCACCTAGTGCAG”, the binding signal is 52600 fluorescence intensity (a.u.).

Take “AGGCTGATGAAAGGGGATTGCCAGCAGATTGCAATGCAGACGGAGTCACCTAGTGCAG”: the binding signal is 16900 fluorescence intensity (a.u.).

For “TTTACAAGATTGGCAAGTCTGGTCAGGAGTCTCATGCGGCCGGAGTCACCTAGTGCAG”, the binding signal was 31900 fluorescence intensity (a.u.).

Take “ATTTACTAATGATAGATTAATTAGGCCTAATAGATTCGACCGGAGTCACCTAGTGCAG”: the binding signal was 29200 fluorescence intensity (a.u.).

As for “ATAACTAATGGATGAAATTTTCTATCATCTCAAAGCTGATCGGAGTCACCTAGTGCAG”, the binding signal is 17500 fluorescence intensity (a.u.).

For the sequence “GAGCAAATTTAATAGTATAGCCCACTACTAACTCCAAATCCGGAGTCACCTAGTGCAG”, the binding signal was 3860 fluorescence intensity (a.u.).

With “AGTAAATTAAACCTGCATATATATGAACGCTCACAAGTCACGGAGTCACCTAGTGCAG”, the binding signal was 7360 fluorescence intensity (a.u.).

On to “ACTAAATTAAATGGTTGGACTCCTCATGTTGAAGATATACCGGAGTCACCTAGTGCAG”, for which the binding signal was 13800 fluorescence intensity (a.u.).

“GCAATAATTAATAAGGCTCTAGGATAATTCAAATGGTTTTCGGAGTCACCTAGTGCAG”: the binding signal was 9520 fluorescence intensity (a.u.).

For the sequence “TTCAGTCAATTTATAGTTGGTTGTTGAGAGGATTTAGAATCGGAGTCACCTAGTGCAG”, the binding signal was 3200 fluorescence intensity (a.u.).

With “TTTGCGAACGTAATTCCATTAATTAAACACACGTCTATATCGGAGTCACCTAGTGCAG”, the binding signal was 3570 fluorescence intensity (a.u.).

“GCCACATTTAACGTGTGATTAATTAAATATTAGCTATTTTCGGAGTCACCTAGTGCAG”: the binding signal was 12500 fluorescence intensity (a.u.).

As to “AGGATGATTAACAGCCAATTAATTGATAAAATCAATTATGCGGAGTCACCTAGTGCAG”, the binding signal is 28000 fluorescence intensity (a.u.).

Take “CCTTTGACTGAATTTGATCAAGCATTAGATGCTGAAAGTTCGGAGTCACCTAGTGCAG”: the binding signal was 31100 fluorescence intensity (a.u.).

On to “GTTAATTAGTTATAGTTTGCGAAAGAACATGTATTAACCTCGGAGTCACCTAGTGCAG”, for which the binding signal is 28300 fluorescence intensity (a.u.).

Take “GTGTAGCATTTGATTGTTAAACAGCAAAATAACCCATGCACGGAGTCACCTAGTGCAG”: the binding signal is 11600 fluorescence intensity (a.u.).
